# This is one part of the list. The energies were worked out here from pooled read counts, against the library average; single values are noisy.
# Biological target: T1, Pho4 (S. cerevisiae) (UniProt P07270)
# T1 sequence: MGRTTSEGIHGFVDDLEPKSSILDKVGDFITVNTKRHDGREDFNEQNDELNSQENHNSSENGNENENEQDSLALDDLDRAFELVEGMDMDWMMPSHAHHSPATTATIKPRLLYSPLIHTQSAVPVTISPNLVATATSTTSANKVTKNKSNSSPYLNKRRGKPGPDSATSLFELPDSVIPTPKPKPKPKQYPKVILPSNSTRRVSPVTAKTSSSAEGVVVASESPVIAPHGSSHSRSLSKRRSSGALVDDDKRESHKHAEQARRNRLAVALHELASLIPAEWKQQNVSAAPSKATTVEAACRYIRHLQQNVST
# Assay: relative binding free energy (BET-seq); higher = weaker binding
# Conditions: reference: library average
row,Sequence,relative binding free energy [kcal/mol]
1,CGATACACGTGGAGGT,-0.02
2,TTGTTCACGTGAGGCG,0.39
3,ATTATCACGTGTTTTC,0.3
4,CGGGGCACGTGGTAGC,-0.23
5,TAGTTCACGTGTCTGG,0.18
6,ATGGGCACGTGAGGAG,0.1
7,GCGCTCACGTGGGTAG,0.08
8,CATGACACGTGGGTTG,-0.1
9,GGTGTCACGTGTATTG,0.16
10,GTTATCACGTGTGGCG,-0.02
11,TCGTGCACGTGGAAAG,0.09
12,ATGGGCACGTGCGGAT,-0.11
13,GTGTACACGTGGTCGG,0.02
14,GTTTCCACGTGTGGCT,0.35
15,TTTGGCACGTGTTTTC,0.1
16,GGTGTCACGTGAAAGG,0.39
17,ACCAGCACGTGGGGTG,-0.23
18,GTACTCACGTGTGGGG,0.34
19,GATAACACGTGTGGCT,0.24
20,AATATCACGTGATGCT,0.23
21,TAAGGCACGTGAAGCG,0.23
22,TAGAGCACGTGGGTTC,-0.23
23,AATTTCACGTGGCGAT,0.46
24,TGTATCACGTGAGTTA,0.3
25,GCATGCACGTGAGTGG,0.13

row,Sequence,relative binding free energy [kcal/mol]
1,TCGGTCACGTGGACGG,0.29
2,GTTGGCACGTGATTAC,0.13
3,GTGTTCACGTGTTGTT,0.26
4,TAGTTCACGTGCTAAG,0.34
5,GTAGTCACGTGCGATT,0.17
6,ATAGCCACGTGTGAGG,-0.01
7,GTGGACACGTGTATTT,0.17
8,GAGAGCACGTGTGGTA,-0.05
9,ATCGTCACGTGTGCTT,0.2
10,TTGGCCACGTGTTATT,0
11,TACGTCACGTGAGTAT,0.28
12,CAGGGCACGTGATGAG,-0.05
13,TTGAACACGTGAATGT,0.31
14,TCGTTCACGTGGGGAC,0.1
15,ATTGTCACGTGCTTGG,-0.09
16,AGTAGCACGTGTATCT,-0.05
17,TAGTTCACGTGGATTT,0.23
18,ACTGACACGTGGTAGG,-0.18
19,TAAATCACGTGGGATT,-0.05
20,TTTAGCACGTGTTTCT,-0.14
21,GCTGGCACGTGGTCGG,-0.27
22,GACGTCACGTGGGTTA,0.04
23,TATTACACGTGGACGT,0.02
24,ATTATCACGTGGGTAG,0.06
25,AGATGCACGTGTTGCG,-0.05

row,Sequence,relative binding free energy [kcal/mol]
1,GGGCTCACGTGGGATG,0.27
2,GAGGTCACGTGGGTTT,0.17
3,TGTTACACGTGTCGTA,0.06
4,TTGTTCACGTGATGTC,0.45
5,GGAGGCACGTGCATTG,-0.07
6,TGTCCCACGTGAGGTG,-0.01
7,TGCAACACGTGGGTAT,-0.12
8,TATGTCACGTGATGTT,0.19
9,CTTGACACGTGTATTT,-0.07
10,ACAATCACGTGTAGGT,0.32
11,TTGTTCACGTGTGACT,0.32
12,ATGGGCACGTGGTCGG,-0.21
13,GGCGGCACGTGGTGCA,-0.24
14,AGAGGCACGTGTGTGT,-0.06
15,ATTTTCACGTGAGCTT,0.48
16,ATCGTCACGTGGTAAG,0.05
17,CTAAACACGTGGGGGT,-0.11
18,ATGGGCACGTGCAATA,-0.03
19,TTGACCACGTGCGGGT,0
20,TGGAACACGTGCGTGG,-0.04
21,GTTGTCACGTGGAGGT,0.17
22,TTTGGCACGTGTAGCC,0.02
23,TGTGTCACGTGAGTAG,0.29
24,GGGGACACGTGCGAGT,0.12
25,TTCTGCACGTGGTAGT,-0.19

row,Sequence,relative binding free energy [kcal/mol]
1,ATGGTCACGTGGGTAC,-0.09
2,AAAGTCACGTGTAGTT,0.24
3,ATTGTCACGTGTAATG,0.17
4,TGTTTCACGTGGCACA,0.25
5,GATTGCACGTGTGTCA,0.15
6,AAGGGCACGTGGAAGG,0.05
7,TGGAGCACGTGGTAAA,0.01
8,GGGGTCACGTGAGGAC,0.31
9,TTGGGCACGTGATCGT,-0.13
10,TAAGACACGTGTATAT,0.06
11,TAGGACACGTGGATTT,0.1
12,AGGGTCACGTGGGGTC,-0.07
13,AGTGGCACGTGTGAAT,0.08
14,GCTGGCACGTGGTTGG,-0.02
15,TGGTTCACGTGATTTG,0.38
16,TTTGACACGTGATGGA,0.08
17,CGCGGCACGTGATGGG,0.03
18,TGGAGCACGTGAGAGC,0.35
19,ACTAGCACGTGGAGTG,-0.1
20,GGTTGCACGTGATGAT,0.18
21,GGATTCACGTGAAGTG,0.57
22,TCAGTCACGTGGTGAG,0.14
23,GTTTCCACGTGGGAGT,0.06
24,TTAGCCACGTGTAGGT,-0.11
25,CAGATCACGTGTAGTT,0.19

row,Sequence,relative binding free energy [kcal/mol]
1,GGTATCACGTGGCGGT,0.21
2,ATGTACACGTGTTAGC,0.03
3,GGGTACACGTGCGGAA,0.03
4,TATGTCACGTGATGAC,0.33
5,ACGTACACGTGGTTGG,0.03
6,ATCTGCACGTGTAGGA,0.03
7,GGAGACACGTGAGTCG,0.38
8,CTAATCACGTGTGTGA,0.06
9,GGGTGCACGTGATAAT,0.22
10,GATGACACGTGATGGA,0.27
11,CATGACACGTGTTGTA,0.03
12,GGAGTCACGTGCTTAG,0.18
13,TGGTGCACGTGGTGAG,-0.07
14,GAGATCACGTGTATGT,0.3
15,GGTACCACGTGTTTTG,-0.07
16,GTGGTCACGTGTTAAG,0.15
17,CGTGTCACGTGTAATG,0.12
18,TGTGTCACGTGGGTTG,-0.04
19,ACCGTCACGTGGGTGG,-0.04
20,TTGAGCACGTGGGAAA,-0.19
21,AAGTGCACGTGAGGGA,0.15
22,TGCGGCACGTGGCGTG,-0.19
23,ATGGGCACGTGTTCGA,-0.06
24,GGTGTCACGTGTTGAT,0.11
25,TTAAACACGTGTGTTT,0.06

row,Sequence,relative binding free energy [kcal/mol]
1,GTGTACACGTGACGGC,0.4
2,TGTGCCACGTGTAGAG,-0.1
3,TCGTGCACGTGTGATT,0.06
4,ATTATCACGTGTTCGT,0.13
5,GTGTTCACGTGCTATA,0.21
6,CGGTACACGTGTAGGA,0
7,TGAGGCACGTGGTGCT,-0.15
8,ATGGCCACGTGGATTG,-0.1
9,GTTGGCACGTGGCTAG,-0.11
10,GGTTGCACGTGTTGTG,0.14
11,TCTTTCACGTGGATGG,0.17
12,CTGGTCACGTGGCGTA,0
13,AAGAGCACGTGGGAAG,-0.03
14,TTGTTCACGTGGAATA,0.27
15,GGGGTCACGTGGGCTC,0.02
16,ATGTTCACGTGGACTT,0.26
17,ATGATCACGTGGGGGC,0
18,AGGGGCACGTGCTTTG,-0.3
19,GCGGACACGTGGATGG,0.15
20,CTGGGCACGTGGGTAG,-0.17
21,GCTTTCACGTGAGAGT,0.42

# Source: the BET-seq Pho4 binding data (Le et al. 2018)
